Reference: PubChem BioAssay AID485273 (Sanford-Burnham Center for Chemical Genomics, 2010)
Screen size: about 330,000 compounds; about 1,500 (0.45%) were called active. Inconclusive means that the source gave no clear call. Such entries were picked first, then a sample of the others. No stated cut-off is given here; in the data, active means inhibition above about 45% (passing the limit was not always enough); inconclusive means no clear call, values can overlap the other calls.

Each molecule was assayed against Ubiquitin-conjugating enzyme E2 N (Homo sapiens) (UniProt P61088) (assay: UBC13 polyubiquitin chain formation inhibitors, primary screen, biochemical, TR-FRET, uHTS (AID 485273)). Conditions: at 20 µM, active compounds read high.
UniProt P61088, sequence (P61088 whole entry, looked up): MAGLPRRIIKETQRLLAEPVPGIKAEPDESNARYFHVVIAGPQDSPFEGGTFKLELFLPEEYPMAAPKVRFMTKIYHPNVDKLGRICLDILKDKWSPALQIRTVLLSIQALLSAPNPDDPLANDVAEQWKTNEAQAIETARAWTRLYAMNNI

| Structure (SMILES) | inhibition |
| --- | --- |
| COc1ccc(N(CC(=O)N/N=C/c2cccnc2)S(=O)(=O)c2ccc(C)cc2)cc1OC | inactive: -1.5% |
| COc1ccc(N2CCN(C(=O)COC(=O)CNC(=O)c3ccccc3)CC2)cc1 | inconclusive: 78.9% |
| Cc1ccc(OCc2cc(C(=O)NCC3COCCO3)no2)cc1C (stereo unspecified) | inactive: -0.7% |
| COc1nc(NC(C)(C)C)nc(Oc2ccc(=O)n(C)n2)n1 | inactive: -0.3% |
| Cc1cc(C)c(OCCCCN(C)C)c(Br)c1 | inactive: -1.3% |
| O=C(CSCc1ccc([N+](=O)[O-])cc1)NN=C1CCCCCC1 | active: 90.9% |
| CCCCCn1nc(-c2ccccc2)c2nc3ccccc3nc21 | inconclusive: 52.2% |
| COc1cccc(-c2nnc(NC(=O)c3cccs3)s2)c1 | inactive: 0.9% |
| CSc1ccccc1-c1n[nH]c(=S)o1 | inconclusive: 58.2% |
| CCOC(=O)N1CCN(C(=O)c2ccc3c(c2)N(Cc2ccccc2)CCS3)CC1 | active: 45.6% |
| COCCNC(=O)c1cc2cc3ccc(OC)cc3nc2o1 | inactive: 9% |
| COc1cc(-c2cc(-c3ccccc3)nc(SCC(=O)Nc3nccs3)c2C#N)cc(OC)c1OC | inconclusive: 46.5% |
| Nn1c(=S)[nH]c2sc3c(c2c1=O)CCCC3 | inconclusive: 73.9% |
| C#CCOCCOCCOCCNc1nc(N2CCN(C(=O)CCCCCCCCCCNC(=O)Cn3cc(C[C@@H](C)O)nn3)CC2)nc(N2CCN(C(=O)CCCCCCCCCCNC(=O)[C@@H](CCC(=O)O)n3cc(CCCCCN)nn3)CC2)n1 | active: 66.3% |
| Cc1ccc(-c2csc(NCCn3c(C(F)(F)F)nc4ccccc43)n2)cc1 | inconclusive: 93.6% |
| N#Cc1ccc(NC(=O)c2sc3cc(C(F)(F)F)cnc3c2-c2cccs2)cc1 | inconclusive: 82.2% |
| CCC(C)(C)NC(=O)CN(C(=O)CNS(=O)(=O)c1ccccc1)c1ccccc1 | inconclusive: 80.8% |
| Cc1c(Br)c(C(=O)NNC(=O)c2ccc(C(C)(C)C)cc2)nn1C | active: 56.2% |
| COc1ccc(CNC(=O)COC(=O)c2cc(-c3ccc(Cl)s3)nc3ccccc23)cc1 | inconclusive: 45.7% |
| CCOC(=O)c1cccc(Nc2nc(-c3cccnc3)nc3ccccc23)c1 | active: 60.3% |
| CCN(CC)CCOc1ccc(/C(=C(/Cl)c2ccccc2)c2ccccc2)cc1 | active: 73.4% |
| CCOc1ccc(C(=O)C(C)OC(=O)c2nc(Cl)ccc2Cl)cc1 (stereo unspecified) | active: 47% |

| Structure (SMILES) | inhibition |
| --- | --- |
| Cc1ccc(NC(=O)c2c(O)c3ccccc3n(C)c2=O)nc1 | inconclusive: 62% |
| CN(C)CCc1cc2c(c3c1ccc1ccccc13)OCO2 | inconclusive: 90.4% |
| CCOC(=O)c1ccc(NC(=O)COc2ccc(S(=O)(=O)NC(C)CC)cc2)cc1 (stereo unspecified) | inactive: 10.4% |
| O=c1[nH]c2ccc(Cl)cc2c(-c2ccccc2)c1N1CCOCC1 | inconclusive: 64.7% |
| O=C(Nc1cccnc1)c1cc(-c2ccc(F)cc2)on1 | inactive: 12.4% |
| O=C1CC(NS(=O)(=O)c2cc(F)ccc2F)CN1c1cccc(F)c1 (stereo unspecified) | inactive: 8.1% |
| S=c1nc(SCc2ccccc2)[nH]c2ccccc12 | inconclusive: 76.1% |
| O=c1c2cc(N3CCOCC3)ccc2[nH]c(=S)n1CCCN1CCN(c2ccccc2F)CC1 | inconclusive: 83.9% |
| COc1cc(OC)cc(-c2cc3ccccc3c(=O)o2)c1 | inconclusive: 52.1% |
| Cc1ccc(-n2c(=S)[nH]c3c(oc4ccccc43)c2=O)cc1 | inconclusive: 92.2% |
| CCOC(=O)Cn1c(=S)[nH]c2c(oc3ccc(Cl)cc32)c1=O | inconclusive: 85.9% |
| O=C1CC(C(=O)Nc2ccccc2)C2(CCCC2)O1 (stereo unspecified) | inactive: -8.7% |
| Cc1cc(C)nc(NS(=O)(=O)c2ccc(NC(=O)c3ccc(O)cc3O)cc2)n1 | inconclusive: 87% |
| CC(C)=CCc1c(-c2ccc(O)cc2O)oc2cc3c(c(O)c2c1=O)C=CC(C)(C)O3 | active: 49.9% |
| CC(Sc1cnc2ccccc2n1)C(=O)O (stereo unspecified) | inconclusive: 47.4% |
| O=C(Nc1ccccc1)c1ccc(N2CCN(c3ccccc3)CC2)c(S(=O)(=O)N2CCOCC2)c1 | inconclusive: 61% |
| C#CCOCCOCCOCCNc1nc(N2CCN(C(=O)C([C@@H](C)O)n3cc([C@@H](N)CCCCN)nn3)CC2)nc(N2CCN(C(=O)[C@H](CCCCN)n3cc([C@@H](N)[C@H](C)CC)nn3)CC2)n1 (stereo partly specified) | active: 104% |
| CN1CCN(c2cc(-c3cc(O)c4ncccc4c3)ccn2)CC1 | active: 100% |
| COc1ccc(/C=C2\SC(=O)N=C2N)cc1 | inconclusive: 85% |
| O=C(CCCn1c(=S)[nH]c2ccsc2c1=O)NCCc1ccccc1 | active: 55.6% |
| COC(=O)Sc1nc(N2CCOCC2)c2c(c1C#N)CC(C)(C)OC2 | inconclusive: 51% |
| CCOc1ccc(S(=O)(=O)c2c(C(=O)c3ccccc3)cnc3cc4c(cc23)OCCO4)cc1 | inconclusive: 64.6% |

| Structure (SMILES) | inhibition |
| --- | --- |
| O=C(c1ccc2c(c1)[nH]c(=S)n1c3ccccc3nc21)N1CCN(c2ncccn2)CC1 | inconclusive: 63% |
| O=C(O)CCSCCC(=O)O | inconclusive: 83.9% |
| FC(F)(F)c1nnc2c(Sc3ccccc3)nc3ccc(Cl)cc3n12 | inconclusive: 63.4% |
| CCOC(=O)c1nc(C)nc(Sc2n[nH]c(-c3ccc(C(C)(C)C)cc3)n2)c1C | inconclusive: 81% |
| COc1cc(OC)cc(-c2c(-c3cccs3)c3cc(-c4ccc5c(c4)OCCO5)ccc3n2C)c1 | inconclusive: 50.4% |
| CC1CCCCC1NC(=O)CCCn1c(=S)[nH]c2ccsc2c1=O (stereo unspecified) | inconclusive: 63.6% |
| O=C(NCc1ccco1)c1c(O)c2cccc3c2n(c1=O)CCC3 | inconclusive: 65% |
| CCc1ccc2nc(N(CCCN(C)C)C(=O)c3ccc(S(=O)(=O)N(C)C4CCCCC4)cc3)sc2c1 | active: 47.6% |
| O=C(c1cc2c(s1)-c1ccccc1OC2)N1CCCC1 | inconclusive: 76.4% |
| COc1ccc(CCNC(=O)CSc2nc(=O)n3cc(C)ccc3n2)cc1OC | inactive: -9% |
| O=C(c1ccccc1)c1nn(-c2ccc(Cl)cc2)cc1C(=O)c1cc2ccccc2oc1=O | inconclusive: 65.5% |
| C=CCn1c(SCC(=O)N(CC)C2CCS(=O)(=O)C2)nnc1-c1ccccc1 (stereo unspecified) | active: 54.2% |
| Cc1ccc(CN2CCSc3ccc(C(=O)NCCCN4CCN(C)CC4)cc32)cc1 | inconclusive: 50% |
| O=C(NCc1ccccc1)C1=C[C@@H](c2coc3ccccc3c2=O)C[C@@H](OCCCCO)O1 | inactive: 13% |
| Cc1ccc(C)c(NC(=O)CSc2sc3c(O)cc(=O)[nH]c3c2C#N)c1 | inactive: -6.9% |
| CCOCCOC(=O)COc1ccc2c(-c3ccccc3)cc(=O)oc2c1 | inconclusive: 91.8% |
| CCOC(=O)c1c(/N=C/c2cc([N+](=O)[O-])ccc2O)sc(C)c1C | inconclusive: 69.5% |
| COc1cc(S(=O)(=O)n2ccnc2)ccc1Br | inconclusive: 68.8% |
| CC(=O)Oc1ccc2oc(-c3ccccc3)c(C(N)=O)c2c1 | inconclusive: 56.9% |
| COC(=O)c1sccc1NC(=S)NCc1ccc(Cl)cc1 | inconclusive: 89.8% |
| COc1ccc(NC(=O)c2sc3nc(N4CCCC4)c4c(c3c2N)CC(C)(C)OC4)c(OC)c1 | inconclusive: 51.9% |
| COc1ccc(-c2cc3nc(-c4ccccc4)cc(N4CCC5(CC4)OCCO5)n3n2)cc1 | inconclusive: 71.5% |

| Structure (SMILES) | inhibition |
| --- | --- |
| Cc1cccc(C(C)C)c1NC(=O)c1ccc(OCC2CCCO2)cc1 (stereo unspecified) | inconclusive: 73% |
| CN(Cc1c(O)ccc2c1oc(=O)c1ccccc12)C1CCCCC1 | inconclusive: 65.8% |
| N#Cc1c(-c2cccc(F)c2)cc(-c2ccccc2)nc1Br | inconclusive: 51.1% |
| Cc1cc(Nc2ccc(Cl)cc2)nc(-c2ccccc2O)n1 | inconclusive: 68.2% |
| COC(=O)c1ccc(CN(Cc2ccc(C(=O)OC)o2)C(C)(C)C)o1 | inconclusive: 72% |
| COc1cccc(NC(=O)CSc2nnc(NC(=O)C3CCC3)s2)c1 | inactive: 0.9% |
| O=C(COC(=O)CNS(=O)(=O)c1c(F)cccc1F)NC(=O)NC1CCCCC1 | inconclusive: 97.5% |
| CC(C)Cc1csc(NC(=O)c2ccccc2Cl)c1C(=O)O | inactive: -8% |
| CCOC(=O)c1ccc(NC(=S)N2CCSC2c2ccc(Br)cc2)cc1 (stereo unspecified) | inactive: 8.8% |
| CCOC(=O)NC(=O)COC(=O)CNC(=O)c1cccc(OC)c1 | inactive: -6.9% |
| Cc1cc(SCCC(=O)O)nc2c(C)cccc12 | inconclusive: 63.4% |
| COc1cc(C(CCN2CCCC(C)C2)c2c(OC)cc(OC)c3c2OC(=O)CC3c2ccc(N(C)C)cc2)cc(OC)c1OC (stereo unspecified) | active: 45.1% |
| COc1ccc(OC)c2c1sc(=NC(=O)C1CCCCC1)n2C | inconclusive: 70% |
| COc1ccc(CNC(=O)C2(CC3CC(c4ccccc4)=NO3)CCN(C(=O)OC(C)(C)C)CC2)cc1 (stereo unspecified) | active: 77% |
| Cn1c(=O)c(C(=O)Nc2ccccn2)c(O)c2ccccc21 | inconclusive: 67.3% |
| Cc1nn(-c2ccccc2)c2nc(N)c(C#N)c(-c3ccc(C(C)(C)C)cc3)c12 | inconclusive: 61.5% |
| COc1ccccc1[C@@H]1C(c2cccc(Cl)c2)=NN(c2ccc(Br)cc2)[C@H]1C(=O)N1CCOC1=O | inconclusive: 58.8% |
| CC1CCN(C(=O)CCC(=O)Nc2nnc(C(F)(F)F)s2)CC1 | inactive: -7.4% |
| Cc1ccc(NS(=O)(=O)c2c(C)[nH]c(C)c2C(=O)N2CCCCC2)c(Br)c1 | inconclusive: 62.8% |
| COC(=O)C1=C(CSc2nccn2C)NC(=O)NC1c1cc(C)ccc1C (stereo unspecified) | inactive: 4.9% |
